# Assay results published in PubChem BioAssay AID2451 (National Center for Advancing Translational Sciences (NCATS), 2010).
# Values joined by “and” are separate entries in the source; they are usually repeats but may differ in a detail not shown here. Equal entries are not always repeated. Hit rate of the full screen: of about 290,000 compounds, about 2,100 (0.72%) were called active. This list was built around the results that the source calls inconclusive (neither active nor inactive); the mix of calls is not that of the screen. Calls come from the whole dose curve; as a rule, active = well fitted inhibition curve with a large enough effect; inconclusive = small, poorly fitted or top-dose-only effect, or effect the other way; inactive = flat fitted curve, though single readings scatter. A potency beside an inconclusive call is a rough fit, not a confirmed value.
# Target: Fructose-bisphosphate aldolase (Giardia intestinalis (strain ATCC 50803 / WB clone C6)) (UniProt A8B2U2)
# Chain of UniProt A8B2U2 (A8B2U2 whole entry, looked up): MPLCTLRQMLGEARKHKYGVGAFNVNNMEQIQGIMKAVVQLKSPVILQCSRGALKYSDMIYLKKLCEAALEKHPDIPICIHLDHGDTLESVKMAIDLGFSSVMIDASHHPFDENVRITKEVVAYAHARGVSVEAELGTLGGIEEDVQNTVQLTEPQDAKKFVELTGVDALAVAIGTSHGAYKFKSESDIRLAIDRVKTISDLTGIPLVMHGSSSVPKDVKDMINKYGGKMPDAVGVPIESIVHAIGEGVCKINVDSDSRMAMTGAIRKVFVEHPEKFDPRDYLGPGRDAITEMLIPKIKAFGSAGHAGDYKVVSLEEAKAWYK
# Test: qHTS Assay for Inhibitors of Fructose-1,6-bisphosphate Aldolase from Giardia Lamblia; note: nearly all actives have a fitted effect of over 55% in size
# Details: purified Giardia FBPA; series mostly up to 59.6 µM
# In short: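 40 nM FBPA preincubated 10 min at RT with compound (up to 57.5 uM final), then substrate plus GAPDH/TPI/NAD/arsenate coupling and diaphorase/resazurin added. Fluorescence read after 20 min at RT, 525/598 nm.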
# Potency is the fitted concentration of half-maximal effect; tags give direction and shape of the fitted curve.
row,SMILES,Potency
1,C=CCNc1nc(-c2c(C)nc3sccn23)cs1,"inconclusive: 7.92 µM [inhibitor, partial curve]"
2,Cc1cc(-n2c(=O)c(C#N)cc3c(=O)n4ccccc4nc32)no1,"inconclusive: 19.9 µM [inhibitor, partial curve]"
3,COc1cccc(C(=O)Nc2sc3c(c2C#N)CCN(C(C)=O)C3)c1,"inconclusive: 17.7 µM [inhibitor, partial curve]"
4,CCCCC1=CC2=CC(=O)C(C)(OC(=O)CC)C(=O)C2=CN1CCc1ccccn1 (stereo unspecified),"inconclusive: 500 nM [inhibitor, full curve] and inconclusive: 1.41 µM [inhibitor, partial curve]"
5,CC1(OC(=O)C2CCCC2)C(=O)C=C2C=C(c3ccsc3)N(C3CC3)C=C2C1=O (stereo unspecified),"inconclusive: 158 nM [inhibitor, full curve] and inconclusive: 397 nM [inhibitor, full curve]"
6,CCOc1cc2c(C#N)c(N3CCCCC3)nc(N)c2c(N)n1,"inconclusive: 1.12 µM [inhibitor, full curve]"
7,Cc1ccc(/C=C2/NC(=O)N(Cc3ccccc3)C2=O)s1,inactive
8,COc1ccc(C)cc1Nc1n[n+](-c2ccccc2)c(-c2ccc(C(=O)O)cc2)s1,"inconclusive: 3.16 µM [inhibitor, full curve]"
9,CCOC(=O)c1c(NC(=O)C2C3CCC(O3)C2C(=O)O)sc(C)c1-c1ccc(C)cc1 (stereo unspecified),"inconclusive: 17.7 µM [activator, partial curve]"
10,CCOc1ccc(C(=O)c2ccc(O)c(O)c2O)cc1,active: 15.8 µM
11,COc1ccc(Nc2nc(-c3cccs3)cs2)c(OC)c1,"inconclusive: 19.9 µM [inhibitor, partial curve]"
12,Cc1ccc(NC(=O)NCc2c(C)nn(C)c2C)cc1Cl,inactive
13,CC(C)(C)Sc1ccc2nc3c(n2c1)CCCC3,"inconclusive: 28.1 µM [inhibitor, single point]"
14,CC(CN1CCOCC1)OC(=O)c1ccccc1Cl (stereo unspecified),"inconclusive: 28.2 µM [inhibitor, single point]"
15,CC(C(=O)NC1CCCC1)N1C(=O)c2cccc3cccc1c23 (stereo unspecified),"inconclusive: 22.4 µM [inhibitor, single point]"
16,O=C(N/N=C/c1ccsc1)c1c[nH]c2ccccc12,inactive
17,COCCNC(=O)CCn1nc(-c2ccc(Cl)cc2)ccc1=O,inactive
18,OCCN(Cc1ccccc1)CC1CCCCC1,"inconclusive: 28.2 µM [inhibitor, single point]"
19,Oc1cccc2ccc(/C=C/c3ccccc3Cl)nc12,inactive
20,O=C(O)c1ccccc1-c1c2cc(Br)c(=O)c(Br)c-2oc2c(Br)c(O)c(Br)cc12,"inconclusive: 19.9 µM [activator, partial curve]"
21,Cc1cccc(C(=O)N[C@H](C(=O)Nc2nnc(C3CC3)s2)C(C)C)c1,inactive
22,O=C(N/N=C/c1ccccn1)c1ccc2nc[nH]c2c1,active: 15.8 µM
23,CCCCn1c(NC(=S)Nc2ccccc2)nc2ccccc21,"inconclusive: 15.8 µM [inhibitor, single point]"

row,SMILES,Potency
1,CC(C)NCCCOc1ccc(C(C)(C)c2ccccc2)cc1,"inconclusive: 15.8 µM [inhibitor, single point]"
2,Cc1ccc(NC(=O)c2cc(-c3ccc(C)o3)nc3ccccc23)cc1,inactive
3,Nc1ccc2nc(N3CCOCC3)sc2c1,"inconclusive: 6.29 µM [inhibitor, partial curve]"
4,O=C(CC(=O)N/N=C/c1cccs1)NCc1ccccc1,"inconclusive: 17.7 µM [inhibitor, partial curve]"
5,COc1ccc(NC(=O)Nc2ccc(N3CCOCC3)c3nonc23)c(OC)c1,active: 5 µM
6,C#CC1(OC(=O)c2ccccc2)CC(C)N(C)CC1C (stereo unspecified),"inconclusive: 25.1 µM [inhibitor, partial curve]"
7,O=C(CCN1CCCCC1)Nc1cccc(Br)c1,"inconclusive: 31.6 µM [inhibitor, single point]"
8,CCN(CC)S(=O)(=O)c1cc(OC)ccc1N=Nc1ccc(O)c2ncccc12,"inconclusive: 3.16 µM [activator, partial curve]"
9,Cc1ccc(SCCNCc2ccco2)cc1,"inconclusive: 22.4 µM [inhibitor, partial curve]"
10,CCN(CC)c1nc(-c2ccccc2)nc2ccccc12,"inconclusive: 39.8 µM [inhibitor, single point]"
11,COn1c(SCc2ccc(Cl)cc2)nc2ccccc2c1=O,inactive
12,CCn1c(SCCN2CCCCC2)nnc1-c1ccc(S(=O)(=O)N2CCOCC2)cc1,"inconclusive: 14.1 µM [inhibitor, partial curve]"
13,O=C(/C=C/c1cccs1)NC(=S)NNC(=O)Cc1cccs1,"inconclusive: 44.6 µM [inhibitor, single point]"
14,COC(=O)C1=C(C)NC(=O)/C1=C\c1cc(C)n(-c2ccc(F)cc2)c1C,"inconclusive: 14.1 µM [inhibitor, partial curve]"
15,N#Cc1cc(S(=O)(=O)c2ccc(Cl)cc2)c(N)[nH]c1=O,"inconclusive: 22.3 µM [activator, partial curve]"
16,O=C(COC(=O)c1cc(=O)c2ccccc2o1)Nc1ccc2ccccc2c1,inactive
17,O=C1NC(c2ccccn2)Nc2sc3c(c21)CCC3 (stereo unspecified),"inconclusive: 17.7 µM [inhibitor, single point]"
18,CCOC(=O)c1c(C)oc2c1c1c(c3ccccc32)OCN(Cc2cccnc2)C1,active: 5 µM
19,CCN(CC)c1nc(SCC(=O)O)nc(N(CC)CC)n1,"inconclusive: 31.6 µM [activator, partial curve]"
20,COc1ccc(N2CSC3=C(C#N)C(c4cc(OC)ccc4OC)CC(=O)N3C2)c(OC)c1 (stereo unspecified),active: 1.58 µM
21,CN1CCN(Cc2ccc3ccccc3c2)CC1,"inconclusive: 14.1 µM [inhibitor, partial curve]"
22,O=C(NCc1ccc2c(c1)OCO2)C1CC(=O)N(CCc2ccc(F)cc2)C1 (stereo unspecified),inactive
23,CC(=O)N/N=C(\N)c1nonc1N,"inconclusive: 12.6 µM [inhibitor, partial curve]"
